US6861390B2, “Derivatives of UK-2A” (priority 2001, dated 2005)

Tested on: Plasmopara viticola (PLASVI)
Test: whole plant or invertebrate
Details: 24 h, read-out: T4 PLASVI in vivo 1 Day Protectant, control of fungal infection
Text: A blank space indicates not tested.

Compound | pest or weed control at 100 ppm
CCCOC(=O)OCOc1c(OC)ccnc1C(=O)N[C@H]1COC(=O)[C@H](Cc2ccccc2)[C@@H](OC(=O)C(C)C)[C@H](C)OC1=O [Compound 46] | 25 to 74%
CCCC(=O)OCOc1c(OC)ccnc1C(=O)N[C@H]1COC(=O)[C@H](Cc2ccccc2)[C@@H](OC(=O)C(C)C)[C@H](C)OC1=O [Compound 22] | < 25%
COc1ccnc(C(=O)N[C@H]2COC(=O)[C@H](Cc3ccccc3)[C@@H](OC(=O)C(C)C)[C@H](C)OC2=O)c1OCO[Si](C)(C)C [Compound 13] | 25 to 74%
COc1ccnc(C(=O)N[C@H]2COC(=O)[C@H](Cc3ccccc3)[C@@H](OC(=O)C(C)C)[C@H](C)OC2=O)c1OCOCc1ccccc1 [Compound 10] | 25 to 74%
COc1ccnc(C(=O)N[C@H]2COC(=O)[C@H](Cc3ccccc3)[C@@H](OC(=O)C(C)C)[C@H](C)OC2=O)c1OCOC(=O)c1ccccc1 [Compound 29] | 25 to 74%
COc1ccnc(C(=O)N[C@H]2COC(=O)[C@H](Cc3ccccc3)[C@@H](OC(=O)C(C)C)[C@H](C)OC2=O)c1OC1OC(=O)c2ccccc21 (stereo partly drawn) [Compound 43] | 25 to 74%
COCC(=O)OCOc1c(OC)ccnc1C(=O)N[C@H]1COC(=O)[C@H](Cc2ccccc2)[C@@H](OC(=O)C(C)C)[C@H](C)OC1=O [Compound 30] | 25 to 74%
COc1ccnc(C(=O)N[C@H]2COC(=O)[C@H](Cc3ccccc3)[C@@H](OC(=O)C(C)C)[C@H](C)OC2=O)c1OCOC(=O)OC(C)C [Compound 47] | 25 to 74%
CCCOC(C)C(=O)OCOc1c(OC)ccnc1C(=O)N[C@H]1COC(=O)[C@H](Cc2ccccc2)[C@@H](OC(=O)C(C)C)[C@H](C)OC1=O (stereo partly drawn) [Compound 69] | < 25%
COc1ccnc(C(=O)N[C@H]2COC(=O)[C@H](Cc3ccccc3)[C@@H](OC(=O)C(C)C)[C@H](C)OC2=O)c1OCOCCC#N [Compound 15] | < 25%
COC(=O)OCOc1c(OC)ccnc1C(=O)N[C@H]1COC(=O)[C@H](Cc2ccccc2)[C@@H](OC(=O)C(C)C)[C@H](C)OC1=O [Compound 44] | 25 to 74%
COc1ccnc(C(=O)N[C@H]2COC(=O)[C@H](Cc3ccccc3)[C@@H](OC(=O)C(C)C)[C@H](C)OC2=O)c1OCOC(=O)COC1CCCC1 [Compound 41] | 25 to 74%
C=C(C)CO[C@H]1[C@H](C)OC(=O)[C@@H](NC(=O)c2nccc(OC)c2OCOC(C)=O)COC(=O)[C@@H]1Cc1ccccc1 [Compound 53] | 25 to 74%
CCCO[C@H]1[C@H](C)OC(=O)[C@@H](NC(=O)c2nccc(OC)c2OCOC(=O)COCC)COC(=O)[C@@H]1Cc1ccccc1 [Compound 60] | 25 to 74%
COc1ccnc(C(=O)N[C@H]2COC(=O)[C@H](Cc3ccccc3)[C@@H](OC3CCCC3)[C@H](C)OC2=O)c1OCOC(C)=O [Compound 50] | 25 to 74%
COC(=O)CCC(=O)OCOc1c(OC)ccnc1C(=O)N[C@H]1COC(=O)[C@H](Cc2ccccc2)[C@@H](OC(=O)C(C)C)[C@H](C)OC1=O [Compound 32] | 75 to 100%
COc1ccnc(C(=O)N[C@H]2COC(=O)[C@H](Cc3ccccc3)[C@@H](OC(=O)C(C)C)[C@H](C)OC2=O)c1OCOCCCl [Compound 14] | < 25%
CCCC(=O)OCOc1c(OC)ccnc1C(=O)N[C@H]1COC(=O)[C@H](Cc2ccccc2)[C@@H](OCC(C)C)[C@H](C)OC1=O [Compound 63] | 75 to 100%
CCOCC(=O)OCOc1c(OC)ccnc1C(=O)N[C@H]1COC(=O)[C@H](Cc2ccccc2)[C@@H](OCC(C)C)[C@H](C)OC1=O [Compound 59] | 25 to 74%
COCOc1c(OC)ccnc1C(=O)N[C@H]1COC(=O)[C@H](Cc2ccccc2)[C@@H](OC(=O)C(C)C)[C@H](C)OC1=O [Compound 4] | < 25%
COc1ccnc(C(=O)N[C@H]2COC(=O)[C@H](Cc3ccccc3)[C@@H](OCSC)[C@H](C)OC2=O)c1OCOC(=O)C1CCCC1 [Compound 73] | < 25%
